The supplement of paper PMC8183993
Counter-ions that a name gives are not always drawn. ± gives the standard deviation of the averaged measurements. The full ranking holds about 3,100 compounds; the median of “mean cytoplasmic OPP incorporation (global translation) relative to DMSO” is about 100, and the lowest 2% start at about 56. The list shows a part of the results.

System: U2OS
Assay: mean cytoplasmic OPP incorporation (global translation) relative to DMSO (% of DMSO); higher = more protein synthesis
Settings: 10 µM; 24 h
Description: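 Primary image-based screen in U2OS cells: compounds at 10 uM for 24 h, then a 1 h o-propargyl-puromycin (OPP) pulse, click labelling, and high-throughput microscopy. Mean cytoplasmic OPP intensity and nuclei count were normalised to DMSO wells within each plate (DMSO = 100) and averaged over triplicate plates.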

Row | SMILES | mean cytoplasmic OPP incorporation
1 | Cc1cccc(N(C)C(=S)Oc2ccc3ccccc3c2)c1 [Tolnaftate] | 98.3
2 | O=C(O)c1cccnc1 [Niacin] | 99.5
3 | CCCCc1oc2ccccc2c1C(=O)c1cc(I)c(OCCN(CC)CC)c(I)c1 [Amiodarone] | 105
4 | CCCCc1oc2ccccc2c1C(=O)c1cc(I)c(OCCN(CC)CC)c(I)c1 [Amiodarone hydrochloride] | 117
5 | O=C(Nc1cccnc1)N1CCC(Cc2cccc(Oc3ccc(C(F)(F)F)cn3)c2)CC1 | 113
6 | O=C(Nc1ccc([N+](=O)[O-])cc1Cl)c1cc(Cl)ccc1O [Niclosamide] | 106 ± 11
7 | Cc1cc(C)nc(NS(=O)(=O)c2ccc(NC(=S)NC(=O)COc3ccc(Br)cc3Cl)cc2)n1 | 107
8 | CCOc1ccc(Cc2nccc3cc(OCC)c(OCC)cc23)cc1OCC [Ethaverine hydrochloride] | 111
9 | C#C[C@]1(O)CC[C@H]2[C@@H]3CCC4=Cc5oncc5C[C@]4(C)[C@H]3CC[C@@]21C [Danazol] | 94.8
10 | CC(C)c1nc(CN(C)C(=O)N[C@@H](CCN2CCOCC2)C(=O)N[C@H](CC[C@H](Cc2ccccc2)NC(=O)OCc2cncs2)Cc2ccccc2)cs1 [Cobicistat (GS-9350)] | 113
11 | Cc1cccc(-c2nn3c(c2-c2ccnc4ccc(C(N)=O)cc24)CCC3)n1 | 103
12 | CCO/C(O)=C1\C(C)=NC(c2ccccc2)=C(C(=O)OCc2ccc([N+](=O)[O-])cc2)C1C#Cc1ccccc1 (configuration not stated) | 108
13 | O=C(O)c1ccc(C=C2SC(=S)N(c3cccc(C(F)(F)F)c3)C2=O)cc1 | 103
14 | CC12CC3CC(C)(C1)CC(N)(C3)C2 [Memantine hydrochloride] | 98.7
15 | CC12CC3CC(C)(C1)CC(N)(C3)C2 [Memantine Hydrochloride] | 96.7
16 | N[C@@H](Cc1cc(I)c(O)c(I)c1)C(=O)O [3,5-Diiodo-L-tyrosine] | 100
17 | CN1C(C(=O)Nc2ccccn2)=C(O)c2sc(Cl)cc2S1(=O)=O [Lornoxicam (Xefo)] | 96.4
18 | N#Cc1c(Oc2ccc(F)c(NC(=O)Cc3cccc(C(F)(F)F)c3)c2)ccc2nc(NC(=O)C3CC3)sc12 | 95.8
19 | CCC[C@@H]1C[C@@H](C(=O)N[C@@H]([C@H]2O[C@H](SC)[C@H](O)[C@@H](O)[C@H]2O)[C@@H](C)O)N(C)C1 [Lincomycin hydrochloride] | 88.9
20 | CCC[C@@H]1C[C@@H](C(=O)N[C@@H]([C@H]2O[C@H](SC)[C@H](O)[C@@H](O)[C@H]2O)[C@@H](C)O)N(C)C1 [Lincomycin HCl (Lincocin)] | 105
21 | CO[C@H]1C[C@@H]2CC[C@@H](C)[C@@](O)(O2)C(=O)C(=O)N2CCCC[C@H]2C(=O)O[C@H]([C@H](C)C[C@@H]2CC[C@@H](OC(=O)C(C)(CO)CO)[C@H](OC)C2)CC(=O)[C@H](C)/C=C(\C)[C@@H](O)[C@@H](OC)C(=O)[C@H](C)C[C@H](C)/C=C/C=C/C=C/1C | 96.4

Row | SMILES | mean cytoplasmic OPP incorporation
22 | CO[C@H]1C[C@@H]2CC[C@@H](C)[C@@](O)(O2)C(=O)C(=O)N2CCCC[C@H]2C(=O)O[C@H]([C@H](C)C[C@@H]2CC[C@@H](OC(=O)C(C)(CO)CO)[C@H](OC)C2)CC(=O)[C@H](C)/C=C(\C)[C@@H](O)[C@@H](OC)C(=O)[C@H](C)C[C@H](C)/C=C/C=C/C=C/1C [Temsirolimus (Torisel)] | 88.2
23 | CCN(CC)CCN[C@@H](C(=O)OCCC(C)C)c1ccccc1 [Camylofine chlorhydrate] | 102
24 | CN1CCCN=C1/C=C/c1cccs1 [Pyrantel tartrate] | 93.5
25 | CC/C=C\C/C=C\C/C=C\C/C=C\C/C=C\C/C=C\CCC(=O)O [Docosa-4Z,7Z,10Z,13Z,16Z,19Z-hexaenoic acid] | 99.8
26 | Cc1ccc(C(=O)Nc2cccc(C(F)(F)F)c2)cc1Nc1nc(-c2cccnc2)nc2c1cnn2C | 145
27 | CCOC(=O)N1c2ccc(C(F)(F)F)cc2[C@@H](N(Cc2cc(C(F)(F)F)cc(C(F)(F)F)c2)C(=O)OC)C[C@H]1CC | 118
28 | COc1ccc(-c2cc(=O)c3c(OC)c(OC)c(OC)c(OC)c3o2)cc1OC [Nobiletin (Hexamethoxyflavone)] | 114
29 | CC[C@H](CO)Nc1nc(Nc2cccc(-c3ccccn3)c2)c2ncn(C(C)C)c2n1 [(R)-DRF053 dihydrochloride] | 104
30 | CC(=O)Nc1c(I)c(C(=O)N[C@H]2C(O)O[C@H](CO)[C@@H](O)[C@@H]2O)c(I)c(N(C)C(C)=O)c1I (some centres not stated) [Metrizamide] | 107
31 | O=C(O)c1ccnc(C(=O)O)c1 [2,4-Pyridinedicarboxylic Acid] | 94.2
32 | Cc1ccccc1N1CCN(S(=O)(=O)C[C@]23CC[C@H](C[C@@H]2NC(=O)[C@@H](N)CCS(C)(=O)=O)C3(C)C)CC1 [L-368,899 hydrochloride] | 101
33 | NC[C@H](O)c1ccc(O)c(O)c1 [Noradrenaline bitartrate monohydrate (Levophed)] | 102
34 | CCN(CC)CCNC(=O)c1ccc(N)cc1 [Procainamide hydrochloride] | 95.5
35 | Brc1ccc(C2CN3CCSC3=N2)cc1 [L-p-Bromotetramisole oxalate] | 94.5
36 | c1cc(CN2CCCCC2)cc(OCCCNc2nc3ccccc3s2)c1 [Zolantidine dimaleate] | 118
37 | CCc1cc2c(cc1CC)CC(NC[C@H](O)c1ccc(O)c3[nH]c(=O)ccc13)C2 [Indacaterol Maleate] | 110
38 | CNCC(O)c1ccc(O)c(O)c1 (configuration not stated) [Racepinephrine HCl] | 101
39 | CCOC1O[C@H]([C@@H](COCc2ccccc2)OCc2ccccc2)[C@H](OCc2ccccc2)[C@H]1O (some centres not stated) [Tribenoside] | 107
40 | Cc1c(-c2ccc(O)cc2)n(Cc2ccc(OCCN3CCCCCC3)cc2)c2ccc(O)cc12 [Bazedoxifene HCl] | 131
41 | CCOC(=O)[C@@H](C)Oc1cccc2c(=O)n(CC(=O)Nc3ccc4c(c3)OCCO4)ccc12 | 93
42 | CC(C)[N+]1(C)[C@@H]2CC[C@H]1C[C@@H](OC(=O)C(CO)c1ccccc1)C2 (some centres not stated) [Ipratropium bromide] | 96.6
